According to PubChem BioAssay AID2546 (National Center for Advancing Translational Sciences (NCATS), 2010):
About 11,000 (3.5%) of roughly 310,000 compounds were called active. The inconclusive results got no clear call from the source; some entries with a clear call stand among them for comparison. Calls come from the whole dose curve; as a rule, active = well fitted inhibition curve with a large enough effect; inconclusive = small, poorly fitted or top-dose-only effect, or effect the other way; inactive = flat fitted curve, though single readings scatter. Potencies of inconclusive entries are left out as doubtful fits.

Test: VP16 counterscreen qHTS for inhibitors of ROR gamma transcriptional activity;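 note: Gal4-VP16 expression switched on by copper sulfate through the metallothionein promoter; nearly all actives have a fitted effect of over 50% in size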
Conditions: Drosophila S2 Gal4-VP16 UAS-luciferase, luminescence, 20 h; activity, negative = inhibition: at 53.6 µM (top of the series)
% is set by controls: 0 for no effect and ±100 for the full control effect; potency is the fitted concentration of half-maximal effect; tags give direction and shape of the fitted curve.

Compound	Potency	activity, negative = inhibition
COc1cc(O)c(C(CCN2CCCC2)c2ccc3c(c2)OCO3)c(OC)c1 (stereo not given)	inactive	–
O=C1CCC(C(=O)N2CCc3ccccc3C2)CN1CCCN1CCOCC1 (stereo not given)	–	inactive: -7.91%
COc1ccc(C(=O)Cc2ccccc2)cc1OC	–	inactive: 4.58%
CN(C)CCCN1c2ccccc2Sc2ccc(C(F)(F)F)cc21	inactive	–
Cc1ccc(NS(=O)(=O)c2ccc(C(=O)N3CCN(c4ccccn4)CC3)cc2)cc1	inconclusive [inhibitor, single point]	–
CC1C(=O)C(C)C(c2cc(Cl)ccc2O)NC1c1cc(Cl)ccc1O (stereo not given)	inconclusive [inhibitor, single point]	–
Cn1c(-c2sccc2OCc2ccc(Cl)cc2Cl)n[nH]c1=S	active: 7.08 µM	–
CC(C)(C)C(=O)Nc1nnc(CCc2ccccc2)s1	inconclusive [inhibitor, single point]	–
O=C(Cc1cc(=O)[nH][nH]1)N/N=C/c1c(Cl)cccc1Cl	inconclusive [inhibitor, single point]	–
O=C(NCc1ccco1)C1CCCN1C(=O)Nc1ccc(Br)cc1 (stereo not given)	inconclusive [inhibitor, single point]	–
Nc1ccc(C(=O)N/N=C/c2cn(Cc3ccc(F)cc3)c3ccccc23)cc1	inconclusive [inhibitor, single point]	–
CCC(=O)Nc1ccc(-c2ccc(N3CCCCC3)nn2)cc1	inconclusive [inhibitor, single point]	–
CC(=O)OC[C@H]1O[C@@H](O/N=C(\C)CCC(=O)OC[C@@H]2O[C@H](C#Cc3ccccc3)C=C[C@@H]2Oc2ccc(C)cc2)[C@H](OC(C)=O)[C@@H](OC(C)=O)[C@H]1OC(C)=O	–	inactive: -6.26% [at 10 µM]
Cc1cccc(C(=O)NNC2=CC(=O)CC(C)(C)C2)c1O	–	inactive: -1.48%
Cc1ccc(C(=O)Nc2cnc3ccccc3c2)cc1	active: 2.82 µM	–
N#Cc1cc(C#N)c(N2CCN(c3cccc(Cl)n3)CC2)nc1N	inconclusive [inhibitor, single point]	–
COC(=O)C(=Nc1ccccc1)/C(C(=O)C(=O)N(C)c1ccccc1)=C(\O)c1ccc(Cl)cc1	inconclusive [activator, partial curve, poor fit]	–
Cc1[nH]n(-c2ccccc2)c(=O)c1N=Nc1ccccc1	inconclusive [activator, full curve]	–
Cc1nc2scc(-c3ccccc3)c2c(=O)n1N	–	inactive: 1.74%
Nc1ccc2nc(SCC(=O)Nc3ccc(N4CCOCC4)c(Cl)c3)sc2c1	inconclusive [inhibitor, single point]	–
COc1ccc(-c2cc(-c3cc(F)ccc3O)[nH]n2)cc1OC	inconclusive [inhibitor, single point]	–
COc1ccc(-c2cn3nc4c(nc3n2)CCCC4)cc1	active: 1.26 µM	–
O=C(c1ccc(COCC(F)(F)F)cc1)N1CCN(c2ccccn2)CC1	inconclusive [activator, partial curve]	–
CCCCCCNC(=O)c1c(O)c2ccccc2[nH]c1=O	–	inactive: 14.3%
CCn1c(SCC(=O)Nc2ccc(F)cc2)nnc1-c1cnccn1	–	inactive: 5.4%

Compound	Potency	activity, negative = inhibition
N#C/C(=C\c1cccc(Br)c1)C(=O)N1CCCCC1	inconclusive [inhibitor, single point]	–
C=CCOC(=O)c1ccc(-n2cncn2)nc1	inconclusive [inhibitor, single point]	–
Cc1ccc(NC(=O)CC2SC3=NCCN3C2=O)cc1 (stereo not given)	active: 11.2 µM	–
CC(=O)NC(=S)Nc1cccc2c(C)cc(C)nc12	active: 11.2 µM	–
CCN(CC)S(=O)(=O)c1ccc(N(C)Cc2ccc(C(F)(F)F)cc2)nc1	inconclusive [inhibitor, single point]	–
COc1cccc(CNC(=O)c2ccc(C)c(NC3=NC4CS(=O)(=O)CC4S3)c2)c1 (stereo not given)	–	inactive: 6.96%
CCc1cc(C(=O)NNC(=S)Nc2ccccc2C)cs1	inconclusive [inhibitor, single point]	–
CC(=O)Nc1cc2c(cc1NC(=O)Cn1nc(-c3ccccc3F)ccc1=O)OCCO2	–	inactive: 2.58%
Cc1ccc(CCNC(=O)c2nnc(CS(=O)(=O)c3ccccc3)o2)cc1	–	inactive: 2.49%
O=C(CC1Sc2ncnn2C1=O)Nc1ccc(Cl)cc1 (stereo not given)	inconclusive [inhibitor, single point]	–
CN(C(=O)CC1C(=O)NCCN1Cc1ccc(F)cc1Cl)C1CCCCC1 (stereo not given)	inconclusive [inhibitor, single point]	–
CC(=O)N/C(=C\c1ccccc1)C(=O)OC/C=C/c1ccccc1	–	inactive: -1.16%
O=C1/C(=C\c2c(NCCOCCO)nc3ccccn3c2=O)SC(=S)N1Cc1ccco1	inconclusive [inhibitor, single point]	–
CCOC(=O)C1=C(c2ccccc2)OC(N)=C(C#N)C1c1ccc(Br)s1 (stereo not given)	inconclusive [inhibitor, single point]	–
Cc1ccc(Nc2ccc([N+](=O)[O-])nc2[N+](=O)[O-])cc1	inconclusive [inhibitor, partial curve]	–
Cc1cccc(Nc2nnc(SC/C(O)=C(\C#N)c3nc4ccccc4[nH]3)s2)c1	active: 11.2 µM	–
CCOc1ccc(NCc2cc3cc(OC)ccc3[nH]c2=O)cc1	inconclusive [inhibitor, single point]	–
O=C(CCN1C(=O)/C(=C/c2ccccc2Cl)SC1=S)N1CCOCC1	inconclusive [inhibitor, single point]	–
O=C(Nc1nc2ccccc2n1CCN1CCOCC1)c1ccc(Cn2cc([N+](=O)[O-])cn2)o1	inconclusive [inhibitor, single point]	–
COc1ccc(/C=N/NC(=O)c2ccc(F)cc2)cc1CN1CCc2cc(OC)c(OC)cc2C1C (stereo not given)	–	inactive: -14.5%
O=C(Nc1ccccc1)N(Cc1ccc2c(c1)OCO2)Cc1nc2ccccc2c(=O)[nH]1	inconclusive [inhibitor, single point]	–
CN(C)c1ccc(-c2nccc(Nc3ccc(F)cc3)n2)cc1	inconclusive [inhibitor, single point]	–
CCNc1nc(NCC)nc(SCCOc2ccc(C)cc2)n1	inconclusive [inhibitor, single point]	–
O=C(NC1CCCCCCC1)c1ccccc1-c1ccccc1	–	inactive: 3.11%
CC(C)(C)c1cc(C(=O)N/N=C/c2ccc(-c3ccccc3[N+](=O)[O-])o2)n[nH]1	–	inactive: -4.5%

Compound	Potency	activity, negative = inhibition
Cc1ccc(-n2nnnc2-c2cnc3cc4c(cc3c2C)OCO4)cc1	inconclusive [inhibitor, single point]	–
O=C(N/N=C\c1cn[nH]c1-c1ccc(Cl)cc1)c1cccs1	inconclusive [inhibitor, single point]	–
Brc1ccc(OCc2ccccc2)c(CNCc2ccncc2)c1	inconclusive [inhibitor, single point]	–
COc1ccc(/C=N/NC(=O)CCn2cnc(-c3ccccc3)c2-c2ccccc2)cc1OC	active: 12.6 µM	–
COc1ccc(OC)c(C(C[N+](=O)[O-])c2c(C)cc3ccccn23)c1 (stereo not given)	inconclusive [inhibitor, single point]	–
Cc1ccc(C(=O)Nc2nnc(C3=COCCO3)o2)cc1C	active: 0.282 µM	–
CCC(=O)c1ccc(OCC(O)Cn2c(C)nc3ccccc32)cc1 (stereo not given)	active: 7.94 µM	–
COc1ccc2[nH]c(C)c(CCNC(=S)Nc3cccc(C)c3)c2c1	active: 20 µM	–
COc1ccc(-c2cc(NCc3ccccn3)n3ncnc3n2)cc1	inconclusive [inhibitor, single point]	–
S=C(Nc1ccc(Cl)cc1Cl)N1CCCCC1	inconclusive [inhibitor, single point]	–
CCOc1nc(SCCOc2ccc(Cl)cc2Cl)nc(N(C)C)n1	inconclusive [inhibitor, single point]	–
CCNC(=S)N/N=C/c1sc(N2CCCCC2)nc1-c1cccs1	active: 17.8 µM	–
Cc1cc(C(=O)CN2C(=O)NC3(CCCC3)C2=O)c(C)n1-c1ccc2c(c1)OCO2	inconclusive [activator, single point]	–
Cc1noc(C)c1COc1cccc(C(=O)N2CCN(C/C=C/c3ccccc3)CC2)c1	–	inactive: 2.42%
CCSC1=C(C#N)C(c2cccc(Br)c2)CC(=O)N1 (stereo not given)	inconclusive [inhibitor, single point]	–
COC(=O)C(CC(=O)c1ccc(Br)cc1)n1ccnc1 (stereo not given)	active: 1 µM	–
CN(C)c1ccc(C(c2ccc(N(C)C)cc2)c2ccc([N+](=O)[O-])cc2)cc1	–	inactive: 2.96%
CN(C)c1ccc2c(-c3ccccc3)c3ccc(=[N+](C)C)cc-3oc2c1	active: 3.16 µM	–
COc1ccccc1OCCn1c(=S)[nH]c2ccccc21	active: 10 µM	–
Cc1csc(NC(=O)c2cc3c(s2)CCCCC3)n1	active: 3.98 µM	–
Cc1ccc(N=Nc2c(C)[nH]n(C(N)=S)c2=O)cc1C	active: 1.12 µM	–
COc1cc(C(=O)Nc2ccc3c(c2)OCCO3)ccc1OC(C)C	inconclusive [inhibitor, partial curve]	–
COc1ccc2ccccc2c1C1NC(=O)NC(C)=C1[N+](=O)[O-] (stereo not given)	active: 11.2 µM	–
CC(C)Cn1c(N)c(C(=O)COC(=O)c2cnc(Cl)c(Cl)c2)c(=O)n(C)c1=O	–	inactive: -3.79%
Fc1cccc(Cc2noc(CN3CCC(c4ccncc4)CC3)n2)c1	inconclusive [inhibitor, partial curve]	–
